# The supplement of paper PMC8728848
# The list shows a part of the results.
# B1: FimA-N1 (Actinomyces oris) (protein)
# chain: MHHHHHHSSGVDLGTENLYFQSNATETPNYGNIKTDATGSLVIHKHLTGGGKDIGTPTGTAQNADDKGPAVEGVVFTAYPITDINLKDPAGWDTISNLSRTGVPDSACANPAAPTLGAHQFGTPKVSPATTKEGLATITEMPVQAYLVCETTTPGDIVQKAKPFVVTIPHPNTAAGADGQWIYDVNVYPKNEAIDVDKTIQAQK
# How the values were obtained:
# Assay in all cases: glycan array binding signal (z-score within array); higher = stronger binding
# Conditions in all cases: glycan notation: IUPAC condensed, linker removed
# [1] = molecular target: Fuc(a1-2)Gal
# Method in brief: (§1)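 Columns mapping to the same glycan were averaged after glycan names were converted to IUPAC-condensed notation. The data come from 3228 arrays in the Consortium for Functional Glycomics database, limited to those with an available protein sequence. Binding is reported as a within-array Z-score averaged across arrays of one protein sequence and across linkers.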
# [2] = molecular target: Fuc(a1-2)Gal(b1-3)GalNAc
# Method in brief: as §1
# [3] = molecular target: Fuc(a1-2)Gal(b1-3)GalNAc(a1-3)[Fuc(a1-2)]Gal(b1-4)Glc
# Method in brief: as §1
# [4] = molecular target: Fuc(a1-2)Gal(b1-3)GalNAc(a1-3)[Fuc(a1-2)]Gal(b1-4)GlcNAc
# Method in brief: as §1
# [5] = molecular target: Fuc(a1-2)Gal(b1-3)GalNAc(b1-3)Gal
# Method in brief: as §1
# [6] = molecular target: Fuc(a1-2)Gal(b1-3)GalNAc(b1-3)Gal(a1-4)Gal(b1-4)Glc
# Method in brief: as §1
# [7] = molecular target: Fuc(a1-2)Gal(b1-3)GalNAc(b1-4)[Neu5Ac(a2-3)]Gal(b1-4)Glc
# Method in brief: as §1
# [8] = molecular target: Fuc(a1-2)Gal(b1-3)GlcNAc
# Method in brief: as §1
# [9] = molecular target: Fuc(a1-2)Gal(b1-3)GlcNAc(b1-2)Man(a1-3)[Fuc(a1-2)Gal(b1-3)GlcNAc(b1-2)Man(a1-6)]Man(b1-4)GlcNAc(b1-4)GlcNAc
# Method in brief: as §1
# [10] = molecular target: Fuc(a1-2)Gal(b1-3)GlcNAc(b1-2)Man(a1-3)[Fuc(a1-2)Gal(b1-3)GlcNAc(b1-2)Man(a1-6)]Man(b1-4)GlcNAc(b1-4)[Fuc(a1-6)]GlcNAc
# Method in brief: as §1
# [11] = molecular target: Fuc(a1-2)Gal(b1-3)GlcNAc(b1-3)Gal(b1-4)Glc
# Method in brief: as §1
# [12] = molecular target: Fuc(a1-2)Gal(b1-3)GlcNAc(b1-3)GalNAc
# Method in brief: as §1
# [13] = molecular target: Fuc(a1-2)Gal(b1-3)GlcNAc(b1-3)[Fuc(a1-2)Gal(b1-3)GlcNAc(b1-6)]GalNAc
# Method in brief: as §1
# [14] = molecular target: Fuc(a1-2)Gal(b1-3)GlcNAc(b1-3)[Gal(b1-4)GlcNAc(b1-6)]Gal(b1-4)Glc
# Method in brief: as §1
# [15] = molecular target: Fuc(a1-2)Gal(b1-3)GlcNAc(b1-3)[Neu5Ac(a2-6)Gal(b1-4)GlcNAc(b1-6)]Gal(b1-4)Glc
# Method in brief: as §1
# [16] = molecular target: Fuc(a1-2)Gal(b1-3)GlcNAc6S
# Method in brief: as §1
# [17] = molecular target: Fuc(a1-2)Gal(b1-3)[Fuc(a1-4)]GlcNAc
# Method in brief: as §1
# [18] = molecular target: Fuc(a1-2)Gal(b1-3)[Fuc(a1-4)]GlcNAc(b1-2)Man(a1-3)[Fuc(a1-2)Gal(b1-3)[Fuc(a1-4)]GlcNAc(b1-2)Man(a1-3)]Man(b1-4)GlcNAc(b1-4)GlcNAc
# Method in brief: as §1
# [19] = molecular target: Fuc(a1-2)Gal(b1-3)[Fuc(a1-4)]GlcNAc(b1-2)Man(a1-3)[Fuc(a1-2)Gal(b1-3)[Fuc(a1-4)]GlcNAc(b1-2)Man(a1-6)]Man(b1-4)GlcNAc(b1-4)[Fuc(a1-6)]GlcNAc(b1-4)[Fuc(a1-6)]GlcNAc
# Method in brief: as §1
# [20] = molecular target: Fuc(a1-2)Gal(b1-3)[Fuc(a1-4)]GlcNAc(b1-3)[Fuc(a1-3)[Gal(b1-4)]GlcNAc(b1-6)]Gal(b1-4)Glc
# Method in brief: as §1
# [21] = molecular target: Fuc(a1-2)Gal(b1-3)[Fuc(a1-4)]GlcNAc(b1-3)[Gal(b1-4)GlcNAc(b1-6)]Gal(b1-4)Glc
# Method in brief: as §1
# [22] = molecular target: Fuc(a1-2)Gal(b1-4)Glc
# Method in brief: as §1
# [23] = molecular target: Fuc(a1-2)Gal(b1-4)Glc6S
# Method in brief: as §1
# [24] = molecular target: Fuc(a1-2)Gal(b1-4)GlcNAc
# Method in brief: as §1
# [25] = molecular target: Fuc(a1-2)Gal(b1-4)GlcNAc(b1-2)Man
# Method in brief: as §1
# [26] = molecular target: Fuc(a1-2)Gal(b1-4)GlcNAc(b1-2)Man(a1-3)[Fuc(a1-2)Gal(b1-4)GlcNAc(b1-2)Man(a1-6)]Man(b1-4)GlcNAc(b1-4)GlcNAc
# Method in brief: as §1
# [27] = molecular target: Fuc(a1-2)Gal(b1-4)GlcNAc(b1-2)Man(a1-3)[Fuc(a1-2)Gal(b1-4)GlcNAc(b1-2)Man(a1-6)]Man(b1-4)GlcNAc(b1-4)[Fuc(a1-6)]GlcNAc
# Method in brief: as §1
# [28] = molecular target: Fuc(a1-2)Gal(b1-4)GlcNAc(b1-2)[Fuc(a1-2)Gal(b1-4)GlcNAc(b1-4)]Man(a1-3)[Fuc(a1-2)Gal(b1-4)GlcNAc(b1-2)Man(a1-6)]Man(b1-4)GlcNAc(b1-4)GlcNAc
# Method in brief: as §1
# [29] = molecular target: Fuc(a1-2)Gal(b1-4)GlcNAc(b1-3)Gal(b1-4)GlcNAc
# Method in brief: as §1
# [30] = molecular target: Fuc(a1-2)Gal(b1-4)GlcNAc(b1-3)Gal(b1-4)GlcNAc(b1-2)Man(a1-3)[Fuc(a1-2)Gal(b1-4)GlcNAc(b1-3)Gal(b1-4)GlcNAc(b1-2)Man(a1-6)]Man(b1-4)GlcNAc(b1-4)GlcNAc
# Method in brief: as §1
# [31] = molecular target: Fuc(a1-2)Gal(b1-4)GlcNAc(b1-3)Gal(b1-4)GlcNAc(b1-3)Gal(b1-4)GlcNAc
# Method in brief: as §1
# [32] = molecular target: Fuc(a1-2)Gal(b1-4)GlcNAc(b1-3)GalNAc
# Method in brief: as §1
# [33] = molecular target: Fuc(a1-2)Gal(b1-4)GlcNAc(b1-3)[Fuc(a1-2)Gal(b1-4)GlcNAc(b1-6)]GalNAc
# Method in brief: as §1
# [34] = molecular target: Fuc(a1-2)Gal(b1-4)GlcNAc(b1-3)[Fuc(a1-3)[Gal(b1-4)]GlcNAc(b1-6)]Gal(b1-4)Glc
# Method in brief: as §1
# [35] = molecular target: Fuc(a1-2)Gal(b1-4)GlcNAc(b1-6)GalNAc
# Method in brief: as §1
# [36] = molecular target: Fuc(a1-2)Gal(b1-4)GlcNAc6S
# Method in brief: as §1
# [37] = molecular target: Fuc(a1-2)Gal(b1-4)[Fuc(a1-3)]GlcNAc
# Method in brief: as §1
# [38] = molecular target: Fuc(a1-2)Gal(b1-4)[Fuc(a1-3)]GlcNAc(b1-2)Man(a1-3)[Fuc(a1-2)Gal(b1-4)[Fuc(a1-3)]GlcNAc(b1-2)Man(a1-6)]Man(b1-4)GlcNAc(b1-4)[Fuc(a1-6)]GlcNAc
# Method in brief: as §1
# [39] = molecular target: Fuc(a1-2)Gal(b1-4)[Fuc(a1-3)]GlcNAc(b1-2)[Fuc(a1-2)Gal(b1-4)[Fuc(a1-3)]GlcNAc(b1-4)]Man(a1-3)[Fuc(a1-2)Gal(b1-4)[Fuc(a1-3)]GlcNAc(b1-2)Man(a1-6)]Man(b1-4)GlcNAc(b1-4)GlcNAc
# Method in brief: as §1
# [40] = molecular target: Fuc(a1-2)Gal(b1-4)[Fuc(a1-3)]GlcNAc(b1-3)Gal(b1-4)[Fuc(a1-3)]GlcNAc
# Method in brief: as §1
# [41] = molecular target: Fuc(a1-2)Gal(b1-4)[Fuc(a1-3)]GlcNAc(b1-3)Gal(b1-4)[Fuc(a1-3)]GlcNAc(b1-3)Gal(b1-4)[Fuc(a1-3)]GlcNAc
# Method in brief: as §1
# [42] = molecular target: Fuc(a1-2)Gal(b1-4)[Fuc(a1-3)]GlcNAc(b1-3)GalNAc
# Method in brief: as §1
# [43] = molecular target: Fuc(a1-2)Gal(b1-4)[Fuc(a1-3)]GlcNAc(b1-3)[Neu5Ac(a2-6)Gal(b1-4)GlcNAc(b1-6)]Gal(b1-4)Glc
# Method in brief: as §1
# [44] = molecular target: Fuc(a1-2)Gal3S(b1-4)GlcNAc
# Method in brief: as §1
# [45] = molecular target: Fuc(a1-2)Gal6S(b1-3)GlcNAc
# Method in brief: as §1
binder,measurement,setting,value
B1,glycan array binding signal (z-score),[1],-0.18
same,glycan array binding signal (z-score),[2],-0.402
same,glycan array binding signal (z-score),[3],-0.336
same,glycan array binding signal (z-score),[4],-0.25
same,glycan array binding signal (z-score),[5],2.83
same,glycan array binding signal (z-score),[6],-0.245
same,glycan array binding signal (z-score),[7],-0.117
same,glycan array binding signal (z-score),[8],-0.136
same,glycan array binding signal (z-score),[9],-0.181
same,glycan array binding signal (z-score),[10],-0.204
same,glycan array binding signal (z-score),[11],-0.268
same,glycan array binding signal (z-score),[12],-0.224
same,glycan array binding signal (z-score),[13],-0.128
same,glycan array binding signal (z-score),[14],-0.277
same,glycan array binding signal (z-score),[15],-0.19
same,glycan array binding signal (z-score),[16],-0.093
same,glycan array binding signal (z-score),[17],-0.275
same,glycan array binding signal (z-score),[18],0.231
same,glycan array binding signal (z-score),[19],-0.015
same,glycan array binding signal (z-score),[20],-0.187
same,glycan array binding signal (z-score),[21],-0.183
same,glycan array binding signal (z-score),[22],-0.366
same,glycan array binding signal (z-score),[23],-0.379
same,glycan array binding signal (z-score),[24],-0.16
same,glycan array binding signal (z-score),[25],0.065
same,glycan array binding signal (z-score),[26],0.742
same,glycan array binding signal (z-score),[27],-0.24
same,glycan array binding signal (z-score),[28],-0.069
same,glycan array binding signal (z-score),[29],-0.319
same,glycan array binding signal (z-score),[30],-0.175
same,glycan array binding signal (z-score),[31],-0.348
same,glycan array binding signal (z-score),[32],0.044
same,glycan array binding signal (z-score),[33],-0.462
same,glycan array binding signal (z-score),[34],-0.014
same,glycan array binding signal (z-score),[35],-0.096
same,glycan array binding signal (z-score),[36],-0.052
same,glycan array binding signal (z-score),[37],0.461
same,glycan array binding signal (z-score),[38],0.219
same,glycan array binding signal (z-score),[39],0.284
same,glycan array binding signal (z-score),[40],-0.314
same,glycan array binding signal (z-score),[41],-0.302
same,glycan array binding signal (z-score),[42],-0.422
same,glycan array binding signal (z-score),[43],0.028
same,glycan array binding signal (z-score),[44],0.009
same,glycan array binding signal (z-score),[45],-0.104
